# Data: PubChem BioAssay AID540267 (National Center for Advancing Translational Sciences (NCATS), 2011)
# In all, about 340,000 compounds went through this assay and about 530 (0.16%) were called active. This list was built around the results that the source calls inconclusive (neither active nor inactive); the mix of calls is not that of the screen. Rule as the data show it: active = activity change below about -80%; inconclusive = between about -30% and that limit; inactive = weaker than that.
# Experiment: Small Molecules that selectively kill Giardia lamblia: qHTS;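 also: parasites exposed to compound for two days anaerobically before the ATP read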
# Settings: Giardia lamblia trophozoite viability; at 7.66 µM; stronger effect = lower value
# Procedure, shortened: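 Killing of trophozoites was scored by loss of ATP luminescence after a 48 hrs anaerobic exposure to compounds at 37 deg C, using 100 cells per well.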
# % is scaled to controls: 0 for no effect and ±100 for the full control effect.
row,SMILES,activity change
1,CN(CC1COc2ccccc2O1)C(=O)CSc1ncnc2sccc12 (centres undefined),inconclusive: -31.9% [inhibitor]
2,O=C(CSc1nc2ncccc2[nH]1)Nc1ccccc1-c1ccccc1,inconclusive: -32% [inhibitor]
3,Nc1sc2c([n+]1CCCS(=O)(=O)[O-])CCCC2,inconclusive: -37.7% [inhibitor]
4,CC(C)N(C(=O)CSc1nc2ccccc2n1Cc1ccccc1F)C(C)C,inactive: -13.3%
5,CC(C)c1ccc(-c2csc3nc[nH]c(=O)c23)cc1,inconclusive: -32.3% [inhibitor]
6,Cc1cc(NC(=O)CN2C(=O)NC(c3ccccc3)(c3ccc(C)c(C)c3)C2=O)no1 (centres undefined),inconclusive: -31.6% [inhibitor]
7,COC(=O)Nc1nc2ccc(C(=O)c3cccs3)cc2[nH]1,inconclusive: -54.7% [inhibitor]
8,O=C(NCC1CCCN(C(=O)Cc2ccccc2Cl)C1)c1ccc(F)cc1 (centres undefined),inactive: 7.18%
9,CC/S(C)=N/S(=O)(=O)c1ccc(C)cc1 (centres undefined),inconclusive: -34.5% [inhibitor]
10,CC(C)c1ccc(-c2csc(NC(=O)c3cccs3)c2C(=O)O)cc1,inconclusive: -30.1% [inhibitor]
11,Cc1ccccc1-n1ncc2c1CC(C)(C)CC2NC(=O)C1CCC1 (centres undefined),inconclusive: -31.8% [inhibitor]
12,Nc1nc(=S)c2n[nH]nc2[nH]1,inactive: 17.5%
13,O=C(COC(=O)COc1ccc(Cl)cc1Cl)NC1CCS(=O)(=O)C1 (centres undefined),inconclusive: -31.7% [inhibitor]
14,O=C(CSc1nc(O)c(C(c2ccccc2)c2ccccc2)c(=O)[nH]1)N1CCOCC1,inconclusive: -32.1% [inhibitor]
15,Cc1cc(S(=O)(=O)Nc2ccc3c(c2)n(C)c(=O)n3C)ccc1F,inactive: 4.67%
16,Cc1ccc(-n2c(O)c(/C=N/Nc3ccc(S(=O)(=O)N4CCOCC4)cc3[N+](=O)[O-])c3ccccc3c2=O)c(C)c1,inconclusive: -38.8% [inhibitor]
17,O=C(O)c1ccc(NC(=O)c2cccc(S(=O)(=O)Nc3ccc(C(=O)O)cc3)c2)cc1,inactive: -10.1%
18,Nc1c(C(=O)NCCC2=CCCCC2)sc2ccc(S(=O)(=O)N3CCCCC3)cc12,inconclusive: -33.9% [inhibitor]
19,Cc1ccc(S(=O)(=O)N2CCC(C(=O)NCCc3ccccn3)CC2)cc1,inconclusive: -31.4% [inhibitor]
20,O=C(CSc1cn(CCNC(=O)c2cccs2)c2ccccc12)NCc1ccccc1,inconclusive: -31.6% [inhibitor]
21,COc1ccc(C(=O)N(C)C2CCCN(Cc3ccccc3F)C2)cc1C (centres undefined),inactive: -10.7%
22,Cc1c(NC(=O)CN(c2ccc(F)cc2)S(=O)(=O)c2ccccc2)c(=O)n(-c2ccccc2)n1C,inactive: -3.04%
23,COc1ccc(C(=O)Nc2ccccc2C(=O)O)cc1Cl,inconclusive: -30.7% [inhibitor]
24,Cc1ccc(C(=O)CSc2nc(N)cc(=O)[nH]2)cc1C,inconclusive: -30.3% [inhibitor]
25,COc1ccc(N2CCN(C(=O)c3oc4ccccc4c3NC(=O)Cc3ccc(OC)c(OC)c3)CC2)cc1,inconclusive: -35.6% [inhibitor]
26,O=C(NCCO)c1ccc2c3n(nc2c1)-c1ccccc1CO3,inconclusive: -48% [inhibitor]
27,O=C(CCNC(=O)Cn1ccc2ccccc2c1=O)NCCN1CCN(c2cccc(Cl)c2)CC1,inactive: 8.36%

row,SMILES,activity change
1,CC(C)COP(=O)(OCC(C)C)C(Nc1ccccc1)c1ccc(F)cc1 (centres undefined),inactive: -0.236%
2,Cc1[nH]c2ccccc2c1C(=O)COc1ccccc1,inactive: -0.176%
3,O=C(NCCOc1ccccc1F)c1cccc(S(=O)(=O)N2CCN(c3ccccc3)CC2)c1,inactive: -4.04%
4,CC1CCCCN1Cc1c(C#N)c2ccccc2n1C (centres undefined),inactive: -13.8%
5,S=c1[nH]nc(CSCCOc2ccc(Cl)cc2Cl)o1,inconclusive: -44.2% [inhibitor]
6,CS(=O)(=O)N(CC(=O)NCCC1=CCCCC1)c1cccc([N+](=O)[O-])c1,inconclusive: -30.6% [inhibitor]
7,Cc1cccc(N(C(=O)c2snc(C(N)=O)c2N)C(C(=O)NCc2ccccc2)c2ccncc2)c1 (centres undefined),inactive: 6.13%
8,O=C(NC1CCCCCC1)c1ccc([N+](=O)[O-])s1,inconclusive: -56.1% [inhibitor]
9,C=Cn1cc[n+](CC(=O)c2cccs2)c1,inactive: 10.1%
10,CCOC(=O)N1CCN(CC(O)COCCC23CC4CC(CC(C4)C2)C3)CC1 (centres undefined),inconclusive: -34.8% [inhibitor]
11,CCOC(=O)C1=C(C)N(CCCC(=O)O)C(=O)NC1c1ccccc1 (centres undefined),inconclusive: -30.1% [inhibitor]
12,CCOc1ccc(OCC)c(NC(=O)CN(c2ccc(C)cc2)S(=O)(=O)c2c(C)noc2C)c1,inconclusive: -37.3% [inhibitor]
13,CCC1=C2CC[C@H]3C(=O)N(CC)C(=O)[C@H]3[C@H]2[C@@]2(Cc3ccccc3)C(=NCc3ccccc3)OC(=O)N2C1=O,inconclusive: -36.1% [inhibitor]
14,COc1ccc(CCNC(=O)[C@@H](NC(N)=O)C(C)C)cc1,inconclusive: -30.3% [inhibitor]
15,CCCOc1cccc(-c2cc(C(=O)NNC(=S)NCC)c3ccccc3n2)c1,inconclusive: -30.7% [inhibitor]
16,CCOC1CC(C)(C)NC(=S)N1 (centres undefined),inconclusive: -33.4% [inhibitor]
17,COc1ccc(-c2cc(=O)c3cc(OC)ccc3o2)cc1,inconclusive: -64.2% [inhibitor]
18,Nc1nnc(SCC(=O)Nc2cccc(S(N)(=O)=O)c2)s1,inconclusive: -32.6% [inhibitor]
19,CC(Sc1ncnc2sc(-c3ccccc3)cc12)C(N)=O (centres undefined),inactive: -28.8%
20,CC(C)(C)c1ccc(NC(=O)Nc2ccc(OCC(=O)N3CCOCC3)cc2)cc1,inconclusive: -30.7% [inhibitor]
21,O=C(COc1cccnc1[N+](=O)[O-])NCCc1ccc(Cl)cc1,inconclusive: -53.5% [inhibitor]
22,COc1ccccc1C(=O)Nc1nc2cc3c(cc2s1)OCCO3,inconclusive: -34.1% [inhibitor]
23,COc1cc(C(=S)N2CCOCC2)ccc1OC(=O)/C=C/c1ccco1,inconclusive: -47.6% [inhibitor]
24,COc1cc(C2CC(=O)Oc3cc(C)c(Cl)c(C)c32)cc(OC)c1OC (centres undefined),inconclusive: -62% [inhibitor]
25,COc1ccc2cc(-c3cc(C(=O)OCC(=O)Nc4c(C)n(C)n(-c5ccccc5)c4=O)c4ccccc4n3)ccc2c1,active: -93.7%
26,O=C(O)COc1ccc(/C=C/c2nc3ccc([N+](=O)[O-])cc3s2)cc1,inconclusive: -40.9% [inhibitor]
27,Cc1ccc2cc(C)c(NCCO)nc2c1,inconclusive: -34% [inhibitor]

row,SMILES,activity change
1,CSc1nsc(NC(=O)OCc2ccc(Cl)cc2)n1,inactive: 2.47%
2,COCCNC(=O)C1(C(F)(F)F)C/C(=C\Cc2ccccc2)CCCO1 (centres undefined),inconclusive: -32.1% [inhibitor]
3,COc1cccc(/C=N/NC(=O)C(=O)N/N=C/c2cccc(OC)c2O)c1O,inactive: 5.39%
4,CCOc1ccc(/C=N/O)cc1,inconclusive: -31.6% [inhibitor]
5,Cc1cc(C)n2nc(SCc3nnc(SCc4ccccc4Cl)s3)nc2n1,inactive: -5.32%
6,Cc1ccc(Sc2ccc(/C=C3/C(=O)NN(c4ccccc4)C3=O)o2)cc1,inconclusive: -30% [inhibitor]
7,COc1ccc(/C=C/C(=O)Nc2ccccc2C(=O)O)cc1,inconclusive: -67.6% [inhibitor]
8,c1ccc(C(c2nnnn2C2CCCC2)N2CCCCCC2)nc1 (centres undefined),inactive: -14.9%
9,Cc1cc(=O)c(C(=O)O)nn1-c1ccccc1C(F)(F)F,inconclusive: -30.3% [inhibitor]
10,Nc1c(-c2ccccc2)cnc2c(-c3ccccc3)cnn12,inconclusive: -39.3% [inhibitor]
11,COCCCNC(=O)c1oc2ccc(S(=O)(=O)N(C)C3CCCCC3)cc2c1C,inactive: 6.84%
12,CCC1(C)CC(CC(=O)O)(c2ccccc2OC)CCO1 (centres undefined),inactive: -4.75%
13,CCC(C)(C)n1nnnc1C(c1cccnc1)N1CCCC(C)C1 (centres undefined),inconclusive: -34.5% [inhibitor]
14,Cc1ccc2nc(-c3ccccc3)cn2c1,inconclusive: -73.1% [inhibitor]
15,O=C(CCc1ccccc1)Nc1ccc2ccccc2n1,inactive: -12.6%
16,CC(=O)N(CCCN(C)C)Cc1ccccn1,inconclusive: -30.7% [inhibitor]
17,COc1cc(OC)c(/C=C2\C(=O)Nc3ccccc32)c(OC)c1,inactive: 5.72%
18,C=CCN1C(=O)C(O)(CC(=O)c2ccccc2)c2ccccc21 (centres undefined),inactive: 12.1%
19,COC(=O)c1ccc(-c2nc3ccccc3[nH]2)cc1,inconclusive: -53% [inhibitor]
20,CC(C)[C@H](CN1CCC[C@H]1CN1C(N)=NC[C@H]1C(C)C)N1C[C@@H](Cc2ccccc2)N(CCCC2CCCC2)C1=N,inconclusive: -39.8% [inhibitor]
21,Cc1oc2c(c1C(=O)O)C(=O)c1ccccc1C2=O,inconclusive: -79% [inhibitor]
22,CCN1C(=O)S/C(=C/c2ccc(Oc3ccc([N+](=O)[O-])cn3)c(OC)c2)C1=O,inactive: -9.07%
23,COc1ccc(C2N(C(C)=O)CCN2S(=O)(=O)c2ccc(C)cc2)cc1 (centres undefined),inconclusive: -30.1% [inhibitor]
24,O=C(CNc1ccccc1)N/N=C/c1ccc([N+](=O)[O-])o1,active: -105%
25,Cc1ccc2c(c1)=C(c1ccccc1)N(O)CC(=O)N=2,inconclusive: -34.3% [inhibitor]
